Source: paper PMC4947186
No constants are given. Whether binding was seen depends on the method and setting. Binding seen in cells or lysates may run through a third protein. Some binding calls cover weakened binding; strength is not graded here. Tags and fused reporters may be left off the sequences shown.

Chains of the proteins cited; added tags and fusions are not shown.
UniProt Q13547: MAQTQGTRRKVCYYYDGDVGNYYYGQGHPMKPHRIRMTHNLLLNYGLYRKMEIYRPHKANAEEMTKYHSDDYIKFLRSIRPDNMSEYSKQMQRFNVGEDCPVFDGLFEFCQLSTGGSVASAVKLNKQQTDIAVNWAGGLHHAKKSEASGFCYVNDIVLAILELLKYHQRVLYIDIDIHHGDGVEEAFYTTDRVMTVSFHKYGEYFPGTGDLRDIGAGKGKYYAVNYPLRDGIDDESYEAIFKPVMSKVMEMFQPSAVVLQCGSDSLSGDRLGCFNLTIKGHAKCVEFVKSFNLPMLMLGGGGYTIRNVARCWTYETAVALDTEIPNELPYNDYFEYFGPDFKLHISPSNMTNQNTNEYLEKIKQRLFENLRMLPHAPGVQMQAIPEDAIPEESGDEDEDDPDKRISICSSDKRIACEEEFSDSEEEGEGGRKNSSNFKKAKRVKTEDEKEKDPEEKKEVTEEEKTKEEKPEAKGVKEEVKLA
UniProt P49792: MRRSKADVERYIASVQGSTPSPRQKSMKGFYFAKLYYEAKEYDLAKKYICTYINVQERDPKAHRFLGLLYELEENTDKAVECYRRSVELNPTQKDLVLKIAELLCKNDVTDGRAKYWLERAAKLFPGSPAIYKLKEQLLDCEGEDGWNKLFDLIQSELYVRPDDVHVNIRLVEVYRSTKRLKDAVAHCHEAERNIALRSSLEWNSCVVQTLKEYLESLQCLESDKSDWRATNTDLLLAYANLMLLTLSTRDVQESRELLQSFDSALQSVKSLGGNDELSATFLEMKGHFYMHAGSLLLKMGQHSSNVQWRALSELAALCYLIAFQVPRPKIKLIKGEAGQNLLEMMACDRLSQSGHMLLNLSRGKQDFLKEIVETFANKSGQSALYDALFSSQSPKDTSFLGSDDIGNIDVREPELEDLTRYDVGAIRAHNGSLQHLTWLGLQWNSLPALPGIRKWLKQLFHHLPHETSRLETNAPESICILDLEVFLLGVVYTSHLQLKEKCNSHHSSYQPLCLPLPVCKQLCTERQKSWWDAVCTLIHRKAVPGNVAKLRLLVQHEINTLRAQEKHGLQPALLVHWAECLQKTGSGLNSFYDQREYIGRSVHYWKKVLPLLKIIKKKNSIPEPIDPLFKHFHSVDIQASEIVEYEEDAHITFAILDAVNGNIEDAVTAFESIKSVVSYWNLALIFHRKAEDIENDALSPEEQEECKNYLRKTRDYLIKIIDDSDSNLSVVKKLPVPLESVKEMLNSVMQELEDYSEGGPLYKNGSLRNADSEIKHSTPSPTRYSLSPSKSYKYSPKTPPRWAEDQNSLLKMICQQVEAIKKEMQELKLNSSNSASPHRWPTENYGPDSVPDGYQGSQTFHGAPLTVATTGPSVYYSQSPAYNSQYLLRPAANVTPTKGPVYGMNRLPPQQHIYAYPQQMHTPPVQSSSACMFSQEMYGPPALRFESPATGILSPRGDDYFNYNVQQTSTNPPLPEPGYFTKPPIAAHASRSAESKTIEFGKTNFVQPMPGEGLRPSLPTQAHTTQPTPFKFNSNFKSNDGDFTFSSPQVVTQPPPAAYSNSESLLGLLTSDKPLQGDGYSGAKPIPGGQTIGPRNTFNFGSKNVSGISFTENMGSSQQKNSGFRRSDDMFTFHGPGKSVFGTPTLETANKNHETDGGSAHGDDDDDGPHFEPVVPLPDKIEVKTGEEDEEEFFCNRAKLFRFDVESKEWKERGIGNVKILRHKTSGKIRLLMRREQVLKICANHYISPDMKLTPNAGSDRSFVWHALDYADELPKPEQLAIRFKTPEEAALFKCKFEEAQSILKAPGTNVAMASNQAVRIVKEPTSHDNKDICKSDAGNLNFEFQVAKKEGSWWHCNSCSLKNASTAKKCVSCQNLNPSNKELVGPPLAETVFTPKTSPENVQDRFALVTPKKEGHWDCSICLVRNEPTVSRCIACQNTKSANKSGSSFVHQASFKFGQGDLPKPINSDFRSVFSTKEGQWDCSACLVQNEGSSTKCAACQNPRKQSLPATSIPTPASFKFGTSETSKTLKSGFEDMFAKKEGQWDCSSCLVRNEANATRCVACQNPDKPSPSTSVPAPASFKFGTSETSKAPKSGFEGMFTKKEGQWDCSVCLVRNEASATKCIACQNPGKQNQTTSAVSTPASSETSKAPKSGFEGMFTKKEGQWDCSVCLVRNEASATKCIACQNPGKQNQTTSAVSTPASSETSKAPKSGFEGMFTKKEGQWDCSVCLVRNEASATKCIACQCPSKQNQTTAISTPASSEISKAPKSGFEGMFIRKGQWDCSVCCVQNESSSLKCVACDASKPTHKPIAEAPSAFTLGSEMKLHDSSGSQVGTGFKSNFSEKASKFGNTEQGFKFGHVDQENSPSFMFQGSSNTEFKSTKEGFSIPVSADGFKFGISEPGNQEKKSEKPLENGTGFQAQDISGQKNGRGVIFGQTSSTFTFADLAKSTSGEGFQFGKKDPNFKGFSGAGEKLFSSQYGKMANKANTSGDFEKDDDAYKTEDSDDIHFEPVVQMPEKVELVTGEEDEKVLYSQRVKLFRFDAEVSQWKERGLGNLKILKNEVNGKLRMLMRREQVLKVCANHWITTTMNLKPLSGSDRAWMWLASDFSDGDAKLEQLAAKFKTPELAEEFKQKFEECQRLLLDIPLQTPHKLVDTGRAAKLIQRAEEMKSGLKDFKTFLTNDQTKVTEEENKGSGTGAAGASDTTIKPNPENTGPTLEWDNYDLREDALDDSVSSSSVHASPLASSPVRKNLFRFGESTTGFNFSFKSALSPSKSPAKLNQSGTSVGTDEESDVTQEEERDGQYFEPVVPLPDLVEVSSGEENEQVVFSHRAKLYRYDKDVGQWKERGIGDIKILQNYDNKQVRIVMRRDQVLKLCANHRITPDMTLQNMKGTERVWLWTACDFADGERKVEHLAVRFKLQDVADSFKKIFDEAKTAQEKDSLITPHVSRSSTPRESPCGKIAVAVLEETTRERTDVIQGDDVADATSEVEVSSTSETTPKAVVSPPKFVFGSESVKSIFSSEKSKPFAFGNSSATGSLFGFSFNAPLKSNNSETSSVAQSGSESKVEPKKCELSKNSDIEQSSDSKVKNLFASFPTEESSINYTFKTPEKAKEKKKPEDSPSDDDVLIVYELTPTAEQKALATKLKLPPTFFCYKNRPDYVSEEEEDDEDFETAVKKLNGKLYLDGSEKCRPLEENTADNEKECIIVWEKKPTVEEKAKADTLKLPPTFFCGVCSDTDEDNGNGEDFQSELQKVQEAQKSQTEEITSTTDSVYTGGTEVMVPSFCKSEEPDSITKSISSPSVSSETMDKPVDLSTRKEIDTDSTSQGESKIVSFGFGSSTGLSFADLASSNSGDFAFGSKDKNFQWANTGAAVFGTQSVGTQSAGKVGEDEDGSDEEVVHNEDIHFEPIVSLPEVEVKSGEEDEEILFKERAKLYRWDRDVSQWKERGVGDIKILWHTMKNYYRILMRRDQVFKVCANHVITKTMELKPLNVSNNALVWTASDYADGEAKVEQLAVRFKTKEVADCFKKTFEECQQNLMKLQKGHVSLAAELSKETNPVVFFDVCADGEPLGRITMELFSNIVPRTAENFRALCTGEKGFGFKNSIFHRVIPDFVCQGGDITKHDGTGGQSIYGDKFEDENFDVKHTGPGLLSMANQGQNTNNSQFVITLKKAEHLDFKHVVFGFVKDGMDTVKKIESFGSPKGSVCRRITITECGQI

T1: flag-SHP (Small Heterodimer Partner, NR0B2), wild type, expressed in HepG2 cells (mouse) (UniProt Q62227)
T1 sequence: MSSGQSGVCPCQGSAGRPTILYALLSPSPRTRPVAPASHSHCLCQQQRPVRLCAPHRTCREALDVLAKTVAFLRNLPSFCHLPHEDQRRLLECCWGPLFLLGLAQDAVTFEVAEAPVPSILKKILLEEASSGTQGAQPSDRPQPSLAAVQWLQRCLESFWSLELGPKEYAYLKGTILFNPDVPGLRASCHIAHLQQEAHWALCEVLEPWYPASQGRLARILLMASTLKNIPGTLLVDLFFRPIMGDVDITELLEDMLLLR

T2: flag-SHP T58A mutant (phosphorylation-defective), expressed in HepG2 cells (mouse) (UniProt Q62227)
T2 sequence: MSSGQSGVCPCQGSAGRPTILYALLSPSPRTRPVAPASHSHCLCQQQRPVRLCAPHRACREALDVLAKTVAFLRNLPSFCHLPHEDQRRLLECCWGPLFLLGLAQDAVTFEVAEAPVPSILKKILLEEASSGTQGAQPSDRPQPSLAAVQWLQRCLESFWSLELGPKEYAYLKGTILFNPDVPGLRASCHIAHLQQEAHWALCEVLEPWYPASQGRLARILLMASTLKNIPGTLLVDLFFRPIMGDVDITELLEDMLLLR

T3: mSin3A, endogenous in HepG2 cells (human (endogenous in HepG2)) (UniProt Q96ST3)
T3 sequence: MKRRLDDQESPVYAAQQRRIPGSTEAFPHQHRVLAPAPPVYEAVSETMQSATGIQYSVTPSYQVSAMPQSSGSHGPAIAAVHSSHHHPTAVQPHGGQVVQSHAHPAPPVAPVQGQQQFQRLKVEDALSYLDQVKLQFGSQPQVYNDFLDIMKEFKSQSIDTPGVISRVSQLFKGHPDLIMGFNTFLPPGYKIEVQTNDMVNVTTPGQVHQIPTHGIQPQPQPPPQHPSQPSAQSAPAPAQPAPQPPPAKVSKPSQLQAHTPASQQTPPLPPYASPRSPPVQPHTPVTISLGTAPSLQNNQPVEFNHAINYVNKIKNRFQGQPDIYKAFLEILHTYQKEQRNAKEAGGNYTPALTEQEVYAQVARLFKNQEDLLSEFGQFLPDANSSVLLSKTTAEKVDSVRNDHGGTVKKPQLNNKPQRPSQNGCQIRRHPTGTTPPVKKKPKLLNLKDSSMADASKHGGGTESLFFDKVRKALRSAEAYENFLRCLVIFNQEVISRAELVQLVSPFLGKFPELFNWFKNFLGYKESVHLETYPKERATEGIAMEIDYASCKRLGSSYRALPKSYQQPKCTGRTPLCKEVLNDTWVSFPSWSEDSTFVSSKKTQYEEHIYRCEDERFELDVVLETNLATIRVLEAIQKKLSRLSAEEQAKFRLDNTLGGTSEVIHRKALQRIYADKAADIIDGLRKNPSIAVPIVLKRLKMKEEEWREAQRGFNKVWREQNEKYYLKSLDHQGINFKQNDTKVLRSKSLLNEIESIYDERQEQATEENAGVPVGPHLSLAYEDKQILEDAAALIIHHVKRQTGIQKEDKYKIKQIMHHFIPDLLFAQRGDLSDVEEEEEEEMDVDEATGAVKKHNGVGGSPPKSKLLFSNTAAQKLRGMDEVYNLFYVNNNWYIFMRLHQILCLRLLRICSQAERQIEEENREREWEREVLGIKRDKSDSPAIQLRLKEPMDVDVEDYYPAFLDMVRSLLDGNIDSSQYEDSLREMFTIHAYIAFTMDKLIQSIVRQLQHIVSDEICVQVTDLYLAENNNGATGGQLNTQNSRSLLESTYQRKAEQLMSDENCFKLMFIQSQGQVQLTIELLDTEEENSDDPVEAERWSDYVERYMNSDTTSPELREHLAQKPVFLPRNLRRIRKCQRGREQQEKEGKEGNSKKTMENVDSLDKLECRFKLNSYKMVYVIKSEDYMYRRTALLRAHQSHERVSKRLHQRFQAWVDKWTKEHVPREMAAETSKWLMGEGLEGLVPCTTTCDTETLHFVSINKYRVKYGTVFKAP


Columns and labels:
[1] = target: T1, flag-SHP (Small Heterodimer Partner, NR0B2), wild type, expressed in HepG2 cells (mouse); assay: co-IP; flag-SHP expressed in HepG2 cells precipitated by M2 antibody, RanBP2 detected by IB (Fig. 1b); Fig. 5a: cells treated with 50 uM CDCA for 15 min
[2] = target: T2, flag-SHP T58A mutant (phosphorylation-defective), expressed in HepG2 cells (mouse); assay: as above
[3] = target: T3, mSin3A, endogenous in HepG2 cells (human (endogenous in HepG2)); assay: co-IP; flag-SHP WT or K68R expressed in HepG2 cells treated with 50 uM CDCA for 30 min; LSD1, HDAC1 or mSin3A immunoprecipitated with their antibodies, flag-SHP detected by M2 antibody
[4] = target: HDAC1, endogenous in HepG2 cells (human (endogenous in HepG2)) (UniProt Q13547); assay: as above

| binding [1] | binding [2] | binding [3] | binding [4] | Molecule |
| --- | --- | --- | --- | --- |
| binds | no binding | – | – | Ran-binding protein 2 (RanBP2/Nup358), endogenous in HepG2 cells (from UniProt P49792 1-3224) |
| – | – | binds | binds | flag-SHP (Small Heterodimer Partner, NR0B2), wild type, expressed in HepG2 cells (protein, UniProt Q62227 1-260) MSSGQSGVCPCQGSAGRPTILYALLSPSPRTRPVAPASHSHCLCQQQRPVRLCAPHRTCREALDVLAKTVAFLRNLPSFCHLPHEDQRRLLECCWGPLFLLGLAQDAVTFEVAEAPVPSILKKILLEEASSGTQGAQPSDRPQPSLAAVQWLQRCLESFWSLELGPKEYAYLKGTILFNPDVPGLRASCHIAHLQQEAHWALCEVLEPWYPASQGRLARILLMASTLKNIPGTLLVDLFFRPIMGDVDITELLEDMLLLR |
| – | – | no binding | no binding | flag-SHP K68R mutant (SUMO-defective), expressed in HepG2 cells (protein, UniProt Q62227 1-260) MSSGQSGVCPCQGSAGRPTILYALLSPSPRTRPVAPASHSHCLCQQQRPVRLCAPHRTCREALDVLARTVAFLRNLPSFCHLPHEDQRRLLECCWGPLFLLGLAQDAVTFEVAEAPVPSILKKILLEEASSGTQGAQPSDRPQPSLAAVQWLQRCLESFWSLELGPKEYAYLKGTILFNPDVPGLRASCHIAHLQQEAHWALCEVLEPWYPASQGRLARILLMASTLKNIPGTLLVDLFFRPIMGDVDITELLEDMLLLR |
